Measurements reported in the supplement of paper PMC12217912.
The other results are listed elsewhere or left out. The full chains were built here from the parent and the listed change. Inactive controls read about 0.05.

B1: TEV protease; numbered along this chain (parent)
chain: MGESLFKGPRDYNPISSSICHLTNESDGHTTSLYGIGFGPFIITNKHLFRRNNGTLVVQSLHGVFKVKDTTTLQQHLVDGRDMIIIRMPKDFPPFPQKLKFREPQREERICLVTTNFQTKSMSSMVSDTSCTFPSGDGIFWKHWIQTKDGQCGSPLVSTRDGFIVGIHSASNFTNTNNYFTSVPKNFMELLTNQEAQQWVSGWRLNADSVLWGGHKVFMVKPEEPFQPVKEATQL
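Note: Bxb1 expression induced with 0.2% (w/v) L-rhamnose at OD600 near 0.5, cultures sampled hourly, flipped fraction per protease–substrate barcode pair counted by paired-end Illumina sequencing.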

Variants of: B1
Assay: raw area under fraction-flipped curve 0-4 h after induction (AUC4h, not background-subtracted), DNA-recorder readout of cleavage of the substrate (dimensionless); higher = more cleavage of the substrate by the protease variant
Conditions: temperature: 34 °C; time window: 0-4 h after rhamnose induction
With S209D the “area with substrate ENLYEQS” value was 0.0711, the “area with substrate ENLYHQS” value was 0.0569 and the “area with substrate ENLYMQS” value was 0.0716. The “area with substrate ENLYNQS” value was 0.0541, the “area with substrate ENLYPQS” value was 0.0688 and the “area with substrate ENLYSQS” value was 0.0802. The “area with substrate ENLYWQS” value was 0.0681.
For F226Q, the “area with substrate ENLYEQS” value was 0.0413, the “area with substrate ENLYKQS” value was 0.0465 and the “area with substrate ENLYPQS” value was 0.0967. The “area with substrate ENLYQQS” value was 0.0635, the “area with substrate ENLYRQS” value was 0.0361 and the “area with substrate ENLYSQS” value was 0.0764. The “area with substrate ENLYTQS” value was 0.075, the “area with substrate ENLYVQS” value was 0.126 and the “area with substrate ENLYWQS” value was 0.0724.
For T174K, the “area with substrate ENLYGQS” value was 0.0711, the “area with substrate ENLYKQS” value was 0.0287 and the “area with substrate ENLYNQS” value was 0.0845. For the same variant, the “area with substrate ENLYPQS” value was 0.0637, the “area with substrate ENLYRQS” value was 0.0427 and the “area with substrate ENLYYQS” value was 0.0784.
With N178A the “area with substrate ENLYHQS” value was 0.0501, the “area with substrate ENLYPQS” value was 0.123 and the “area with substrate ENLYQQS” value was 0.0821. The “area with substrate ENLYSQS” value was 0.0693 and the “area with substrate ENLYWQS” value was 0.102.
With T174S the “area with substrate ENLYRQS” value was 0.0607, the “area with substrate ENLYSQS” value was 0.0721 and the “area with substrate ENLYYQS” value was 0.0663.
